Measured values: the antibiotic and cytotoxicity screens of Wong et al. (2023)
The list shows a part of the results.

Columns and labels:
[1] = test system: HSkMC (human skeletal muscle cells); assay: cytotoxicity call (relative viability < 0.9); conditions: 10 µM
[2] = test system: S. aureus RN4220; assay: growth inhibition call (relative growth <= 0.2); conditions: 50 µM

Row | SMILES | cytotoxicity call [1] | growth inhibition call [2]
1 | C[C@@H]1CCCCO[C@H](CN(C)CC2CCCCC2)[C@H](C)CN([C@@H](C)CO)C(=O)c2cc(NS(=O)(=O)c3ccc(F)cc3)ccc2O1 | inactive | inactive
2 | C[C@H](CO)N1C[C@H](C)[C@H](CN(C)S(C)(=O)=O)Oc2ccc(NC(=O)Cn3cnnn3)cc2CC1=O | inactive | inactive
3 | CC(=O)NCCCC[C@@H]1NC(=O)[C@@H]2C[C@H](C(=O)NCCCCCNC(=O)CS)[C@H](c3cccc(OCCO)c3)N2C1=O | inactive | inactive
4 | N=C(N)NCCCCN.O=S(=O)(O)O | inactive | inactive
5 | O=C(C[C@H]1C[C@H]2c3cc(NC(=O)c4ccc5c(c4)OCO5)ccc3O[C@H]2[C@H](CO)O1)NCc1cccnc1 | inactive | inactive
6 | CC(C)NC(=O)Nc1ccc2c(c1)CC(=O)N([C@@H](C)CO)C[C@H](C)[C@H](CN(C)Cc1ccc(Oc3ccccc3)cc1)O2 | inactive | inactive
7 | O=C(C[C@H]1CC[C@H]2[C@@H](COC[C@H](O)CN2Cc2cc(F)ccc2F)O1)N[C@H]1CCN(Cc2ccccc2)C1 | inactive | inactive
8 | COCC#Cc1cnc2c(c1)C(=O)N([C@@H](C)CO)C[C@@H](C)[C@@H](CN(C)C(=O)Nc1ccc(OC)cc1)O2 | inactive | inactive
9 | C[C@@H]1CCCCO[C@@H](CN(C)CC2CCCCC2)[C@@H](C)CN([C@@H](C)CO)C(=O)c2cc(NC(=O)NC3CCCCC3)ccc2O1 | inactive | inactive
10 | C[C@H](CO)N1C[C@H](C)[C@H](CN(C)CC2CCCCC2)OCCCC[C@H](C)Oc2ccc(NC(=O)NC3CCCCC3)cc2C1=O | inactive | inactive
11 | c1ccc(CNc2nn[nH]n2)cc1 | inactive | inactive
12 | C[C@@H]1CN([C@H](C)CO)C(=O)c2cc(NS(=O)(=O)c3ccc(Cl)cc3)ccc2O[C@@H](C)CCCCO[C@@H]1CN(C)S(=O)(=O)c1cccs1 | inactive | inactive
13 | Cc1noc(C)c1S(=O)(=O)Nc1ccc2c(c1)C(=O)N([C@H](C)CO)C[C@H](C)[C@@H](CN(C)C(=O)Nc1ccccc1)O2 | inactive | inactive
14 | CC1=C(C(=O)OCCN(Cc2ccccc2)c2ccccc2)[C@@H](c2cccc([N+](=O)[O-])c2)C(P2(=O)OCC(C)(C)CO2)=C(C)N1.CCO.Cl | inactive | inactive
15 | C[C@H]1CN([C@@H](C)CO)C(=O)Cc2cc(NC(=O)Cc3ccccc3)ccc2O[C@@H]1CN(C)Cc1ccc(-c2ccccc2)cc1 | inactive | inactive
16 | C[C@@H]1CCCCO[C@H](CN(C)C(=O)NC2CCCCC2)[C@@H](C)CN([C@H](C)CO)C(=O)c2cc(NC(=O)c3ccccc3)ccc2O1 | inactive | inactive
17 | C[C@@H]1CCCCO[C@@H](CN(C)C(=O)Nc2ccc(F)cc2)[C@@H](C)CN([C@H](C)CO)C(=O)c2cc(NC(=O)NC3CCCCC3)ccc2O1 | inactive | inactive
18 | C[C@@H]1CN([C@@H](C)CO)C(=O)Cc2cc(NS(C)(=O)=O)ccc2O[C@H]1CN(C)C(=O)Nc1ccc(F)cc1 | inactive | inactive
19 | COc1ccc(C=CC(=O)O)cc1OC | inactive | inactive
20 | C[C@H](CO)N1C[C@H](C)[C@H](CN(C)C(=O)Nc2ccc(C(F)(F)F)cc2)Oc2c(NC(=O)Nc3cccc4ccccc34)cccc2C1=O | inactive | inactive
21 | C[C@H]1CN([C@@H](C)CO)C(=O)CCCn2cc(nn2)CO[C@@H]1CN(C)C(=O)Nc1cccc(Oc2ccccn2)c1 | inactive | inactive
22 | O=S(=O)(NCC[C@@H]1CC[C@@H](NS(=O)(=O)c2ccccc2Cl)[C@H](CO)O1)c1ccc(F)cc1 | inactive | inactive
23 | O=C(C[C@@H]1C[C@H]2c3cc(NC(=O)NC4CCCC4)ccc3O[C@H]2[C@@H](CO)O1)NCc1ccc(Oc2ccccc2)cc1 | inactive | inactive
24 | C[C@H](CO)N1C[C@H](C)[C@H](CN(C)C(=O)Nc2ccc3c(c2)OCO3)Oc2ccc(NC(=O)CCN3CCOCC3)cc2C1=O | inactive | inactive
25 | Cc1noc(C)c1S(=O)(=O)Nc1ccc2c(c1)C(=O)N([C@H](C)CO)C[C@H](C)[C@@H](CN(C)S(=O)(=O)c1cn(C)cn1)OCCCC[C@H](C)O2 | inactive | inactive
26 | C[C@H](CO)N1C[C@H](C)[C@@H](CN(C)C(=O)Nc2ccc(C(F)(F)F)cc2)Oc2ccc(NC(=O)Cc3ccccc3)cc2C1=O | inactive | inactive
27 | O=C(C[C@@H]1C=C[C@H](NS(=O)(=O)c2ccccc2)[C@H](CO)O1)NCc1ccncn1 | inactive | inactive
